The source gives no read counts; variants with many changes may rest on few reads.

B1: LINE1-mini (parent)
chain: GGCAGAGCUCAACACAGCGUGGCAAAGUGGCUGUGGCUAGACUGCC

In the series the parent is B1. In words: self-cleavage, relative activity (ratio to wild type); higher = more cleavage; in vitro, sequencing; the parent is a self-cleaving ribozyme.
With GGCAAAGUUCAACACAGCGUGGCAUCGUGGCUGUCGCUAGACUGCC, the self-cleavage amounted to 0.03.
The figure for GGCAGAGUUCAACACCGCGUGGCAAAGUGAUUGUGGCUAGACUGCC is 0.13.
The figure for GGCAGAGCUAAACACAGCGUGGCAUAGUGGCGGUUGCUAGACUGCC is 0.02; for GACAGAGCUCAACACAGCAUGGCUAAGUGGCUGUGGCUAGACUGCC it is 2.77.
The same measure for GGCCGAGCUCAAUACAGUGUGGUAAAGUGGCUGUGGCUAGAGUGCC: 0.03; for GGCAGAGCGCAACAUAGCGUGCCAAACUGGCUGUGGCUAAACCGCC: 0.01.
For AGCAGAGCUCAACAGAGCGUGGCAAAGUGACUCUUGCUAGACUGCC, the self-cleavage worked out at 0.04.
The same measure for GGCAGAUCUCAACACAGCGUGGCAAAGUUGCUGUAGCUAGAUUGCC: 0.03; for GGAAGAGCUCCAAACAGCGUGGCACAGUGGAUGUGGCUAGACUGCC: 0.01.
The same measure for GGCAGAGCUCAAUACAGCGUGUCAUAGUGGCUGUGUCUAGACUGCC: 0.07; for GGCAGAGCUUAACACGGCGUGGCAAAGUGACGGUGGCUAGACUGCC: 0.03; for GGCAGAGCUCAACAAAGCGUGCCAAAGUGGCGGUGGCUUGACUGCC: 0.01.
Regarding GGCAGAGCACAACACAGCGUGGCAAAGGUGCUGUGGUUAUACCGCU, the self-cleavage was 0.02.
The same measure for GGCAGGGCUCGACACAGCGUGGCAUAGUGGCUGUGGCUAGACUGUC: 0.
The same measure for GGGAUAGCUCAACACAGAGUGGCAAAGUGGCCGUGGCUAGACUGCC: 0.02; for GGCAGAGCUCAACACAGCGUAGCAAAGUGGAUGUGGCGAGACUGCC: 0.05; for GGCAGAGCUCCACACAGCGUGGCAAAGUGGCUGAGGCUAGACUGGC: 0.01.
The figure for GGCAGAGCUAAACACAGAGGGGCAAAGUGGCUGUGGCUAGACUGCC is 0.04; for GGCAAAGUUCAACACAACGUGGCAAAGUGGCUGUGGCUAAACUGCC it is 0.29; for GGCAGAGCUCAAUACAGCGUCGCGAGGUGGCUGUAGCGAGACUGCC it is 0.01.
In the case of GGCAGAGCUCAAUACAGCGAGGCAAAGUGGCUGUGGCUAGACUGUC, the self-cleavage was 0.02.
The figure for GGCGGUGGUCAACACAGCGUGUCAAAAUGGCUGUGGCUAGACUGCC is 0.02; for GGCAGAGAUCAACACAGCGUGGCACAGUGGUUGUGGCUAGACUGCC it is 0.16.
The same measure for GGCAGAGCUCAACACAGCGUGGCAUAGUGGUUGUGGCUACACUGAC: 0.15; for GGCAGAGCUCAACACAGCGUGGAAAAGUGACUGUGGCUAGACUUCC: 0.43; for GGCAGAGCUCAACACUGCGUGGCAAAACGGCUCUGGCUAGACUGCC: 0.08.
The same measure for GGCAGAGAUCAACAUAGCGUGGCAAAGUGCCUGUGGCUAGACUGAC: 0.03; for GGAAGAGCUCAACACAGCGUGGCAAAAUGGCUGUUGCUAGACCGCC: 0.26; for GCCAGAGCUCAACAUAGCGUGGCAAAGUGGCUGGGGCUAGACUGCC: 0.09.
For GGCCGAGCUCAACACAGCGUGGCAAAGUGGAUGUGGCUAGACUGAC, the self-cleavage worked out at 0.01.
The figure for GGCAGAGCUCAACACAGCGUACCAAAGUGGCUGUGGCUAGAGUGCC is 0.03.
For GACAGAGCUCAACACAGCUUGGUAAAGUGGAUGUGGCUAGACUGCC, the self-cleavage is 0.03.
The figure for GGCAGAGCUAAACACAGCGUGGGAACGUGGGUGUGGCCAGAAUGCC is 0; for GGCAGAGCUCAAUACAUCGUGGCAAAGUGACUGUGCCUAGACUGCC it is 0.09; for GGCAGAGCUCAACACAGCAUGGCAAAGUGGCUGUGGCUGCACUGCC it is 0.05.
For GGUAGAGCUCAACACAGCGUGGCAAAGUGGCUAUGGCUGGACUGCC, the self-cleavage was determined as 0.1.
As for GGCAGAGCUCAACUCAGCUUGGCAAACAGGCUGUGGCUAGACAGCC, the self-cleavage was 0.03.
As for GCCAGAGCUCAACACAGCGUGCCAAAGUGGAUGUGGCUAGACUGCC, the self-cleavage is 0.18.
The same measure for GGAAGAGCUCAACACAGCGUGGCACAAUAGCUGUGGCUAGACUGCC: 0.31; for GGCAGAGCUCAAGACAGACUUUCAAAGUGGCUGUGGCCAGACUACC: 0.04.
GGCAGAGCUCUACACAGUGGGGCAAAGUGGCUGGGGCUAGACUGCC: the self-cleavage amounted to 0.
The figure for GGCAGAGCUCCACAUAGCGUGGCAAAGUGGCUGUGGAUAGACUGCC is 0.03; for GGCAGAGCUCAACACGUCGUGGCAAAGUGGCUGUGGCUAGACUUCC it is 0.07; for GGCGGAGCUCAACACAGCGUGGCCAACGGGCUGUGGCUAGACUGCC it is 0.09.
The figure for GGCAAAGCUCAUCAUAGCGUGGCAAAGUGGCUGUGGCUAGACUUCC is 0.01; for GGCAGAUCUCAACACAGCAUGGCAAAUUGGCUGUGGCUAGACUGCC it is 0.04.
Turning to GGCAGUGGACAACACAGCGUGGCAAAGAGGCUGUGGCUAAACUUCC, the self-cleavage worked out at 0.16.
The figure for GGCAGAGCUGAAUACAGCGUGGCCAAGUGGCUGUGGCUAGACUGCC is 0.03.
The same measure for AGCAGAGCUCAAGACAGCGUGGCAAAGUGGCUGUGGCUAGACGGCC: 0.04.
The same measure for GGCAGCGCUCAACGCAUCGUGGCAAAGUGGCUGUGGCUAGACUGCC: 0.14; for GGAAGCGCUCAACACAGCGUGGCAAAGUGGUUGUGGCUUGACCGCC: 0.07; for GGCAGAGCUCACUACAGCGUGGCAAAGUGGCUGAGGCUAGACUGCC: 0.01.
As for GGCAGAACUCAACACAGCGUGGCAAAGUGGCUGUGGCUAGAUUUCC, the self-cleavage worked out at 0.09.
The figure for GGCAGAGCUAAACACAGCGUGGCAAAGUGACUGUGGCUAGACUACC is 0.01.
As for UGCAGAGCUCAACACAGCGUGGCAAAGUGGCUGUGGCUUAAGAGCC, the self-cleavage is 0.01.
The figure for GGCAGAGCUCAAUACAGCGUGGCACAGUGGCUGUGUCUAGACUGCC is 0.06.

(Values after the RNAGym collection of RNA variant scans (doi:10.7554/elife.90254).)
